105 molecules from PubChem BioAssay AID488969 (Vanderbilt High Throughput Screening Facility, 2010) can be followed below.

SMILES strings stand for the structures. Over roughly 110,000 compounds, “z-score” has its median near -0.1; the highest 2% begin near 2. This is one part of the list. Activity calls are given as the source filed them.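 How the source made its calls: active means z-score in the third read window above 3 or below -3; inactive means the rest.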

This experiment addresses Metabotropic glutamate receptor 8 (Rattus norvegicus) (UniProt P70579). Kind of experiment: rat mGluR8 modulators via GIRK flux, primary screen, cell-based, thallium flux, HTS (AID 488969). Particulars: HEK293 rat mGluR8, GIRK (G protein-gated inwardly rectifying potassium channel) thallium flux, FluoZin2; at 10 µM; stronger effect = higher value; submaximal glutamate (EC20) added with thallium.
Chain of UniProt P70579 (P70579 whole entry, looked up): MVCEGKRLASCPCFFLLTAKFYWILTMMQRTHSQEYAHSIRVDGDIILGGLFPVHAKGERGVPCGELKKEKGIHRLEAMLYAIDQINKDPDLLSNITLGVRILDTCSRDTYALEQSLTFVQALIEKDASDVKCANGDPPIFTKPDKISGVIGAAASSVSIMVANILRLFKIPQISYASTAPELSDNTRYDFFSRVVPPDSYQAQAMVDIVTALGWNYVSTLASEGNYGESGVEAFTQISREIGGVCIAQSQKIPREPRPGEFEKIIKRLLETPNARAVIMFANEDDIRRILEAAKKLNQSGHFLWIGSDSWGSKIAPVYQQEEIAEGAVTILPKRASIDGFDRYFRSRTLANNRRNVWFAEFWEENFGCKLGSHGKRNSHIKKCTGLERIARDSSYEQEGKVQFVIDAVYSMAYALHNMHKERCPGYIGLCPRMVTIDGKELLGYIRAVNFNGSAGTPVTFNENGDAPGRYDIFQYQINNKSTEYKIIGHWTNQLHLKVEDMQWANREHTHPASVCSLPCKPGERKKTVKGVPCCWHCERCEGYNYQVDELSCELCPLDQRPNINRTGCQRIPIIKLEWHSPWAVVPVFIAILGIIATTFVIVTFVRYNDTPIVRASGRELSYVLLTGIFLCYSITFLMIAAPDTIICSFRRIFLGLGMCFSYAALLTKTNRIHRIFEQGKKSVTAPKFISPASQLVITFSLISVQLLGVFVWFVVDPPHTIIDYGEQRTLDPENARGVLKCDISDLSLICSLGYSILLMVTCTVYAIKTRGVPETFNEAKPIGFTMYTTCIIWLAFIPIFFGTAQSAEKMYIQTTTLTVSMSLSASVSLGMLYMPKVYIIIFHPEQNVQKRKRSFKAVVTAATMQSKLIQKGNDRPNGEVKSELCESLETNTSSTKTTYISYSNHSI
For the molecule `C/C(=C/C(=O)N1CCN(C)CC1)C(=O)O`, the z-score was -0.0728. The same measure for `COC(=O)C1=C(O)/C(=C\c2ccc(CNC(=O)C(=O)Nc3ccc(C)c(C)c3)o2)N=C1C`: -0.472; for `O=C(NNC(=O)c1cccc(S(=O)(=O)N2CCN(c3ccccc3)CC2)c1)c1ccc(Cl)cc1`: -0.108; for `CCc1ccc(NC(=O)CSc2nnc(-c3cnccn3)n2Cc2ccco2)cc1`: -0.0331. The same measure for `O=C(CSc1nnc(-c2ccncc2)n1CC1CCCO1)Nc1nccs1` (stereo not given): -0.0829.

In turn, `O=S(=O)(Cc1ccccc1)N1CCCC(c2nc(-c3ccc(F)cc3)no2)C1` (stereo not given) came in with a z-score of -0.449. `COc1cc(OC)c(CN2CCCCCCC2)cc1Br`: the z-score worked out at 0.914.

In the case of `CC1(C)CC(=O)C=C(NCCN2CCN(C(=O)Nc3ccccc3)CC2)C1`, the z-score was -0.235. As for `COc1cccc(/C=C/C(=C2/C(=O)N(c3ccccc3)N=C2C)c2ccc(C)cc2)c1OC`, the z-score is -0.536. `COC(=O)C(NC(=O)c1ccccc1)(Nc1nccs1)C(F)(F)F` (stereo not given) yielded a z-score of 0.0938.

As to `COc1ccc(CN(CC(=O)NCC2CCCO2)C(=O)CNS(=O)(=O)c2ccc(C)cc2)cc1` (stereo not given), the z-score is 0.18. `FC(F)(F)c1ccc(N2CCOCC2)c(NC2=NCCCCC2)c1`: the z-score was determined as 1.01. The same measure for `Cc1cccc(OCC(=O)Nc2ccc3c(c2)nc(CCN2CCN(C)CC2)n3C)c1`: 0.472. The same measure for `Cc1nc(S/C(=C/c2ccc(-c3cccc(Cl)c3)o2)C(=O)O)n[nH]1`: -0.00935. Molecule `CN1CCN(C(=O)c2ccc3c(c2)N(Cc2cccc(Cl)c2)C(=O)c2ccccc2S3=O)CC1` (stereo not given) had a z-score of -0.604. `O=c1nc(/C=C/c2ccc(-c3ccc(F)cc3)o2)cc(C(F)(F)F)[nH]1` showed a z-score of 0.167. `C/C(=N\c1nc2ccccc2n1C)c1cc(Cl)ccc1O` displayed a z-score of -0.63. The same measure for `COc1ccccc1N1CCN(C(=O)CN(Cc2ccccc2)S(C)(=O)=O)CC1`: 0.36; for `COc1ccc(NC(=O)c2[nH]c(C)c(C(C)=O)c2C)cc1Cl`: -0.773. The figure for `O=C(Nc1cccc2c1CCCC2)C1CCN(c2nnnn2-c2ccccc2)CC1` is -0.98; for `C(=N\n1cnnc1)/c1ccc2ncccc2c1` it is -0.0827; for `CCOC(=O)C(/C=C(\C#N)C(=O)OCC)=C(/N)N1CCN(c2c(C)cccc2C)CC1` it is -0.0493. In the case of `O=C1CS/C(=N/N=C2C3CC4CC(C3)CC2C4)N1`, the z-score is -0.0871. Take `O=C(COC(=O)C1CCN(S(=O)(=O)c2ccc3c(c2)OCCO3)CC1)Nc1cc(C(F)(F)F)ccc1Cl`: the z-score was -0.303. The figure for `C=CCn1c(COc2ccccc2)nnc1SCC(=O)N/N=C/c1cc(Cl)ccc1O` is -0.136; for `Cc1ccc(-n2nnnc2CSc2nnc(-c3ccc(O)cc3)o2)cc1` it is -0.0955. `O=S1(=O)N=C(N2CCN(c3ccc(F)cc3)CC2)c2ccccc21` yielded a z-score of -0.175. The same measure for `Cn1cc(S(=O)(=O)N2CCN(c3cccc(C(F)(F)F)c3)CC2)c(=O)n(C)c1=O`: -0.133; for `CCCn1nnc(NC(=O)c2cccc(Cl)c2)n1`: 0.243. The figure for `CCCN(CCC)C(=O)CSc1nc2n[nH]c(C)c2c(=N)n1-c1ccc(OCC)cc1` is 0.31; for `O=C(/C=C/c1ccccc1)NC(NC(=S)Nc1cc(Cl)ccc1Cl)C(Cl)(Cl)Cl` (stereo not given) it is active: 5.83. The figure for `COc1cccc(OC)c1C(=O)Nn1c(C2CCC2)nc2ccccc2c1=O` is -0.526; for `c1ccc2c(C3=NNC(=NC4CC4)SC3)c[nH]c2c1` it is -0.159; for `O=C(C1CCCN1S(=O)(=O)c1ccc(Cl)c(Cl)c1)N1CCCCC1` (stereo not given) it is 0.00619. `O=c1oc(-c2cccc(Cl)c2)nc2c1cnn2-c1ccccc1` returned a z-score of -0.298. Turning to `COc1ccccc1N1CCN(CC(=O)Nc2cc(F)ccc2C)CC1`, the z-score turned out to be 0.0403. The figure for `CCOC(=O)c1[nH]c(C)c(/C(O)=C2\C(=O)C(=O)N(CCCN3CCOCC3)C2c2cccnc2)c1C` (stereo not given) is -0.228.

For `CCOC(=O)c1nc2sc3c(c2c(=O)[nH]1)CCCC3`, the z-score is -0.155. For the molecule `CS(=O)(=O)c1nncn1-c1ccccc1`, the z-score stood at 0.00777. The figure for `COc1ccc(NC(=O)[C@@H]2[C@@H]3C(=O)N(C4CCCCC4)C(=O)[C@@H]3C3c4ccccc4C=CN32)cc1` (stereo not given in full) is -0.26; for `Cc1cc(C)n(-c2nnc(C)n2N)n1` it is -0.422.

Molecule `Cc1cc2c(nn1)CCc1nonc1-2` came in with a z-score of 0.0142. The same measure for `CSCCC(NC(=O)c1ccc(Cl)cc1)C(=O)OCC(=O)Nc1ccc(C#N)cc1` (stereo not given): -1.13; for `COc1ccc(N2CCN(C(=S)Nc3cccc(C)c3)CC2)cc1`: 0.0394. As for `Clc1ccc(-c2nc3ncccn3c2Nc2ccc3c(c2)OCCO3)cc1`, the z-score is -0.233. The same measure for `Cc1ccc(Cl)cc1N1CCN(C(=O)c2ccc3nc[nH]c3c2)CC1`: -0.487; for `O=C1CCC(/C=C/c2ccccc2)=NN1Cc1ccccc1Cl`: -0.293. Turning to `c1ccc(Cn2c(-c3ccccc3)nc3nc4ccccc4nc32)cc1`, the z-score is -0.33. For `Nc1c(-c2ccccc2)cnn1-c1ccc(C(=O)O)cc1`, the z-score is active: -3.94. In turn, `COc1ccc2nc(SCC(=O)Nc3ccc(S(=O)(=O)Nc4onc(C)c4C)cc3)[nH]c2c1` gave a z-score of 0.0692. The figure for `Cc1cccc(NC(=O)Cn2nnc(-c3ccc(CN4CCCC4)cc3)n2)c1C` is 0.187; for `COc1ccc([N+](=O)[O-])cc1NC(=O)C(C)Sc1nc(-c2ccccc2)cs1` (stereo not given) it is -0.507.

In the case of `COC(=O)c1sc(=S)n(-c2ccccc2OC)c1N`, the z-score was -0.029. In turn, `O=C(/C=C/c1ccco1)NCCCN1CCN(CCCNC(=O)/C=C/c2ccco2)CC1` came in with a z-score of -0.329.

In turn, `CCN1C(=O)c2ccccc2S(=O)(=O)c2ccc(C(=O)N3CCOCC3)cc21` showed a z-score of -0.766.

For `Nc1nc(CN2CCCCCC2)nc(Nc2ccccc2)n1`, the z-score came to 0.00781. The figure for `CCCn1nnc(NC(=O)COc2ccc(Cl)cc2)n1` is -0.244.

Molecule `O=C(N/N=C/c1ccc(-c2ccccc2[N+](=O)[O-])o1)[C@H]1C[C@@H]1c1ccccc1` had a z-score of -0.229. The figure for `CCC(Sc1ccc2nnc(-c3ccc(F)cc3)n2n1)C(=O)OC` (stereo not given) is active: -4.86; for `Cn1c(=NC(=O)CSCC(=O)N2CCOCC2)sc2ccccc21` it is 0.141.

`C=CCn1c2ccccc2c2nnc(SCCCn3c(=O)[nH]c4ccccc43)nc21` registered a z-score of -0.699. The same measure for `COC(=O)C1(C)NC(c2cccs2)C2C(=O)N(c3ccccc3F)C(=O)C21` (stereo not given): -0.835; for `Cc1ccc(S(=O)(=O)N2CCCN(S(=O)(=O)c3ccc(C)cc3)CC2)cc1`: -0.326; for `Cc1cccc(S(=O)(=O)C(C#N)c2nc3ccccc3nc2N2CC(C)OC(C)C2)c1` (stereo not given): -0.264. The figure for `COC(=O)c1cccc(NC(=O)NC2CCCN2S(=O)(=O)c2ccc(Cl)cc2)c1` (stereo not given) is -0.225; for `CN(c1ccccc1)c1ccc(/C=C(\C#N)c2nnc3n2CCCCC3)cc1[N+](=O)[O-]` it is -0.29. Consider `COc1ccc(OC)c(/C(O)=C/C(=O)C(=O)Nc2ccccc2OC)c1`, for which the z-score was 0.0631. The same measure for `CCN(CC)c1ccc2cc(C(N)=O)c(=O)oc2c1`: -0.0435; for `Cc1c(NC(=S)NC(NC(=O)CC(C)C)C(Cl)(Cl)Cl)c(=O)n(-c2ccccc2)n1C` (stereo not given): 2.53; for `CCCC(=O)NC(=S)NNC(=O)c1ccc([N+](=O)[O-])cc1`: -0.394.

In turn, `CCCC(=O)Nc1cccc(NC(=O)c2ccc(C)c([N+](=O)[O-])c2)c1` had a z-score of -0.0918. The same measure for `CCOc1ccccc1N1CC(C(=O)N2CCc3ccccc32)CC1=O` (stereo not given): 0.171; for `Cc1ccc(S(=O)(=O)NCC(=O)N(CC(=O)NC2CCCCC2)Cc2ccco2)cc1`: -0.184.

Molecule `CCOc1ccc(C2C(C(=O)c3ccco3)=C(O)C(=O)N2Cc2cccnc2)cc1OC` (stereo not given) registered a z-score of -0.0112. With `COc1ccc(OC)c(NC(=O)Cc2coc3cc(C)cc(C)c23)c1`, the z-score is -0.239. The figure for `CCOc1ccc(C2CC(=O)c3c([nH]c(C(=O)OC)c3C)C2)cc1OC` (stereo not given) is 0.845; for `CCOC(=O)N1CCN(CC(=O)Nc2cc(C)nn2-c2nc3ccccc3s2)CC1` it is -0.328; for `Cc1ccccc1NC(=O)NCCCN1CCN(C2CCCCC2)CC1` it is 0.102. The figure for `O=C(c1ccc(Br)o1)N1CCN(c2ccccn2)CC1` is -0.179; for `CNC(=O)c1cc2cc(OC)ccc2n1CCN(Cc1ccccc1)Cc1ccccc1` it is -0.503. The figure for `Cc1cc(C)nc(Nc2ccc(N3CCOCC3)cc2)n1` is -0.038. `O=C1c2ccccc2C(=O)N1CSc1nnc2c3ccccc3n(CCc3ccccc3)c2n1` displayed a z-score of -0.382. Take `COc1cc(C(N)=O)cc(Cl)c1OCc1ccccc1`: the z-score is 0.223.

Consider `N#Cc1c(N)c(C(=O)c2ccc(Br)cc2)n2c1CCC2`, for which the z-score is -0.243. Take `Cc1ccc(C(c2ccc(C)o2)c2cccc([N+](=O)[O-])c2O)o1`: the z-score was -0.0995. The figure for `CCCCOC(=O)CCc1c(C)[nH]c(=S)[nH]c1=O` is -0.153; for `COc1ccc(N2Cc3ccccc3C2)cc1Cl` it is -0.173; for `CCOc1cc(CNc2ccc3c(c2)CCC3)ccc1OC` it is -0.0551.

Turning to `Cc1ccc(/C(O)=C2/C(=O)C(=O)N(CCCn3ccnc3)C2c2ccccn2)cc1` (stereo not given), the z-score was -0.0149. Consider `COC(=O)c1ccc(-c2nc3cc(N)ccc3o2)cc1`, for which the z-score stood at 0.393. The figure for `N#Cc1ccc(Oc2ccc(C(N)=O)cc2)cc1C#N` is 0.194; for `O=c1oc2ccccc2c(N2CCCCC2)c1[N+](=O)[O-]` it is -0.252; for `COC(=O)C1=C(C)OC(N)=C(C#N)C1c1ccc(OC)c(OC)c1OC` (stereo not given) it is 0.342. The same measure for `Cc1ccc(C(=O)OC(C(=O)Nc2ccc(Cl)cc2C(F)(F)F)c2ccccc2)cc1` (stereo not given): -0.813. The same measure for `CCN(CC)c1nc2n(c(=O)n1)CCN2CC`: -0.952; for `Cn1c(C(=O)NC2CC2)cc2c(=O)n(C)c3ccccc3c21`: -0.0538; for `CC(C)c1ccc(N(C(=O)c2csnn2)C(C(=O)NC(C)(C)C)c2ccncc2)cc1` (stereo not given): -0.236.

Regarding `COC1(OC)N=C(N)C2(C#N)C(c3ccccc3)NC(C)=CC12C#N` (stereo not given), the z-score was -0.209. The molecule `Cn1cnnc1SCC(=O)Nc1ccc(S(=O)(=O)N2CCCC2)cc1` showed a z-score of 0.56. In the case of `CN(c1ccccc1)S(=O)(=O)c1ccc(Cl)c(C(=O)Nc2ccc(-c3nc4ccccc4[nH]3)cc2)c1`, the z-score was -0.332. The molecule `COc1ccc(CCNC(=O)CC(NC(=O)c2ccccc2Cl)c2ccccc2)cc1` (stereo not given) registered a z-score of -0.76. The figure for `CCCCCc1nc2c(C#N)c(-c3ccc(Cl)cc3)ccn2n1` is 1.44; for `O=C(CSc1nc2ccccc2[nH]1)Nc1ccc2c(c1)CCC2` it is -0.809. The molecule `O=C(O)/C=C/C(=O)NC1CCS(=O)(=O)C1` (stereo not given) came in with a z-score of 0.219. Take `O=C(Oc1ccc(-c2nnco2)cc1)N(c1ccccc1)c1ccccc1`: the z-score came to 0.519.
